In all, about 410,000 compounds went through this assay and about 7,200 (1.8%) were called active. The shares of active, inactive and inconclusive entries below differ from those in the screen. The call rests on the fitted dose curve; in most records, active means well fitted activation curve with a large enough effect; inconclusive means small, poorly fitted or top-dose-only effect, or another doubt; inactive means no such curve, though single readings can be large or run the other way. Potencies of inconclusive entries are doubtful fits and often do not repeat.
test: qHTS of TDP-43 Inhibitors; conditions: TDP-43 expressing yeast growth rescue, BacTiter-Glo, 24 h; growth rescue (activation): at 46.1 µM (top of the series) unless noted; further: nearly all actives have a fitted effect of over 50% in size; on growth rescue (activation): % of control where 0% means no effect
Method in brief: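 Yeast cells expressing TDP-43 under galactose induction are exposed to compounds for 24 hr at 30 deg C. BacTiter-Glo luminescence measures growth, so protective compounds score as activators.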
Potency means the concentration at half of the fitted maximal effect; tags describe the fitted curve by direction and shape.

Growth rescue (activation), inactive:
CC(Sc1nc(-c2ccc(F)cc2)cs1)C(=O)Nc1ccc(Cl)cn1 (stereo not drawn) 9.16%, COc1ccccc1NC(=O)c1cc2c(=O)oc3ccc(C)cc3c2s1 0%, O=C(O)CSc1c2c(nc3cc(C(=O)Nc4ccc(F)c(Cl)c4)ccc13)CCC2 -0.621%, COC(=O)c1sc(N)nc1CCNC(=O)OC(C)(C)C 3.09%

Potency, inconclusive:
O=C(COC(=O)/C=C/c1cccc(Br)c1)NCc1cccs1 12.6 µM [activator, partial curve], Cc1cccc(-c2ccc3[nH]c4c(c3c2)CCN2C[C@@H]([C@H](C)OC(=O)Nc3ccccc3C)[C@@H](N(C)C(=O)Nc3ccccc3C)C[C@@H]42)c1 22.4 µM [activator, partial curve], COC(=O)c1cc(C(=O)NCc2ccc3c(c2)OCO3)cc([N+](=O)[O-])c1 8.91 µM [activator, single point], CC(C)(C)NC(=O)C(c1ccc(-c2ccccc2)cc1)n1c(=O)c(-c2cc3ccccc3[nH]2)nc2ccccc21 (stereo not drawn) 6.31 µM [activator, single point], Cn1c(=O)c2cn3c(c2n(C)c1=O)C(c1ccccc1)CC(c1ccccc1)=N3 (stereo not drawn) 35.5 µM [activator, partial curve], Oc1ccc(C[C@H]2CNC(=S)N2CCc2cc(C(F)(F)F)cc(C(F)(F)F)c2)cc1 11.2 µM [activator, partial curve], Cn1cc(C(=O)c2ccc(Cl)cc2Cl)cc1C(=O)N/N=C(\N)COc1ccc(Cl)cc1Cl 14.1 µM [activator, partial curve], CCN1C(=O)c2cccc3c(NC(=O)c4ccc(OC)c(OC)c4)ccc1c23 0.562 µM [activator, full curve, poor fit], CC(C)C(=O)c1c(C(C)C)nn2ccccc12 1 µM [activator, full curve, poor fit], COc1ccc(Nc2ncc3c(n2)CCN(Cc2cc(Br)cs2)C3)c(OC)c1 10 µM [activator, partial curve], C#CCOc1ccc(/C=C2/C(=O)ON=C2C)cc1Cl 15.8 µM [activator, single point]

Potency, active:
O=C(NC(=S)Nc1ccc(S(=O)(=O)NC2CCCCC2)cc1)c1cccs1 22.4 µM, COc1ccc(C2=CC(=O)CC(c3ccc(OC)cc3)C2)cc1 (stereo not drawn) 25.1 µM, CCCN(CC(=O)Nc1ccccc1OC)C(=O)c1ccc(COc2ccccc2)o1 11.2 µM

Source: PubChem BioAssay AID652104 (National Center for Advancing Translational Sciences (NCATS), 2013)
